Reference: the RNAGym collection of RNA variant scans (doi:10.7554/elife.90254)
The source gives no read counts; variants with many changes may rest on few reads.

B1: LINE1-mini (parent)
chain: GGCAGAGCUCAACACAGCGUGGCAAAGUGGCUGUGGCUAGACUGCC

Variants of: B1
Experiment: self-cleavage, relative activity (ratio to wild type); higher = more cleavage; in vitro, sequencing; the parent is a self-cleaving ribozyme

Variant | self-cleavage
G1U A24C G40U C42A | 0.08
G1U A24C U34C | 0.05
G1U A24G G27A | 0.24
G1U A24G G33C C37A | 0
G1U A24U A25U C37A | 0.01
G1U A24U C37A A41U | 0.04
G1U A24U U32C | 0.04
G1U A25C G36U | 0.01
G1U A25G A41G | 0.04
G1U A25G G27U | 0.04
G1U A26C U43C | 0.03
G1U A26G G27U G40A A41C | 0.01
G1U A26G U28G G30C | 0.37
G1U A26U G44U | 0.1
G1U A26U U28A | 0.21
G1U A39C C46G | 0.07
G1U C3A A4U G35U C42A | 0.08
G1U C3A A6G A24G C31A | 0.13
G1U C3A A6G G7A C31A | 0.45
G1U C3A A11G C18U G29A G30C C31A G44A | 0.01
G1U C3A A14G G30U G36U C42U | 0.3

Variant | self-cleavage
G1U C3A A16U G36U | 0.47
G1U C3A C15G G21A U43C | 0
G1U C3A C23A G27C C46A | 0.42
G1U C3A U43G | 0.19
G1U C3G A6U G40C C45U | 0.17
G1U C3G A12G G29A G36C | 0.04
G1U C3G A26C G36A | 0.37
G1U C3G C8U C46G | 0.19
G1U C3G C10U U20A A26C | 0.07
G1U C3G G30C A39G | 0.06
G1U C3G U9A G19A G22C | 0.06
G1U C3U A24U A41U | 0.76
G1U C3U C13U C31G C37G A41C | 0.06
G1U C3U C15G G17C A41U | 0.35
G1U C3U G5A A6C A26U | 0.24
G1U C3U G30C C31G U38A C42U | 0.08
G1U C3U G35U C46A | 0.1
G1U C3U U9G G33C | 0.04
G1U C8A A12G C13G G22U C37G U43A | 0
G1U C8A A26C | 0.1
G1U C8A C37G | 0

Variant | self-cleavage
G1U C8A G30U | 0.23
G1U C8A G30U G33A U34C A41U | 0.12
G1U C8A G30U G36U | 0.02
G1U C8A U9A C42U U43C | 0.07
G1U C8A U9G A26G | 0.02
G1U C8G C15G | 0.02
G1U C8G G17C | 0
G1U C8G G36U C46U | 0.03
G1U C8U A24G | 0.11
G1U C8U C18A G29C G30U | 0.04
G1U C8U C37A G44U | 0
G1U C8U C42A | 0.11
G1U C8U G29A C31G A39C G44A C46U | 0.02
G1U C10A A12C | 0.01
G1U C10A A14C | 0.01
G1U C10A A14C G21U G33C C45U | 0.01
G1U C10A A14C G29U C46G | 0
G1U C10A A14G | 0.02
G1U C10A C13A A16C G27U | 0.01
G1U C10A C13G A41C | 0.01
G1U C10A C15U G17C | 0.03

Variant | self-cleavage
G1U C10A C42A C46U | 0.01
G1U C10A G22U G40U C42U | 0.09
G1U C10A G40U | 0.01
G1U C10A U43A | 0.01
G1U C10G C37A A41C | 0
G1U C10G G21U | 0.07
G1U C10G G22U U38A | 0.05
G1U C10U A16C G21C A24C | 0.02
G1U C10U A25U | 0.03
G1U C10U C23A | 0.06
G1U C10U C46U | 0.52
G1U C10U G21U C31A G40A | 0.01
G1U C10U G29A | 0.11
G1U C10U U32G G35A | 0.04
G1U C13A C15G A39C A41C | 0.01
G1U C13A G19C C42G | 0.01
G1U C13A G30C | 0.06
G1U C13A G35C G44U | 0.03
G1U C13A U20C G29C U32A G36A | 0.03
G1U C13G A14U A39G U43C | 0
